# Results taken from the BET-seq Pho4 binding data (Le et al. 2018).
# Some of the results follow. Values were computed here from the reads of four pooled replicates and scatter widely.
# Molecular target: T1, Pho4 (S. cerevisiae) (UniProt P07270)
# T1 sequence: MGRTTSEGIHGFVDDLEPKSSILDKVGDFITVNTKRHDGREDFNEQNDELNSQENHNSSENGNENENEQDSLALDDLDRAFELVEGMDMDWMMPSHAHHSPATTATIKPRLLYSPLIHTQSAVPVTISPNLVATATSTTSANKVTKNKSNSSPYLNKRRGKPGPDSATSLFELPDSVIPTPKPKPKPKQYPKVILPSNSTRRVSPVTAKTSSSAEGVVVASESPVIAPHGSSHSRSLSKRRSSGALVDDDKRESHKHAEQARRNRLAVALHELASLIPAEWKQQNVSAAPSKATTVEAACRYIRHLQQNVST
# Test: relative binding free energy (BET-seq); higher = weaker binding
# Conditions: reference: library average
row,Sequence,relative binding free energy
1,TTCTGCACGTGTGGAG,0.04 kcal/mol
2,TAAGGCACGTGGCAGT,-0.31 kcal/mol
3,ATTAGCACGTGTAGGT,0 kcal/mol
4,GGTGTCACGTGAGTCT,0.31 kcal/mol
5,TTAAACACGTGCTTTT,0.12 kcal/mol
6,GGCTACACGTGCAGGG,0.2 kcal/mol
7,TTCTGCACGTGTATAT,0.02 kcal/mol
8,ATGGGCACGTGAGGCC,0.07 kcal/mol
9,GGAAGCACGTGTCAGG,-0.08 kcal/mol
10,TTGGACACGTGGGCGT,-0.11 kcal/mol
11,GGCCGCACGTGGTTTG,0 kcal/mol
12,TGTTGCACGTGTGGCG,0.08 kcal/mol
13,GGGGGCACGTGTTTCG,-0.02 kcal/mol
14,GTGCACACGTGAGTGT,0.11 kcal/mol
15,GTGCTCACGTGTGATA,0.34 kcal/mol
16,TGTGTCACGTGGGAAA,0.03 kcal/mol
17,AGATGCACGTGGGTCG,-0.18 kcal/mol
18,GGATGCACGTGTGATC,0.19 kcal/mol
19,AGCGTCACGTGGTAAG,0.06 kcal/mol
20,GTAGACACGTGCGGGA,0.04 kcal/mol
21,ATTGGCACGTGCTGCG,-0.3 kcal/mol
22,TTGATCACGTGGGTCT,0 kcal/mol
23,GTTATCACGTGTCGTA,0.23 kcal/mol

row,Sequence,relative binding free energy
1,AGGGGCACGTGTGTTG,-0.16 kcal/mol
2,GTTTACACGTGGGGTA,0.01 kcal/mol
3,CGGGACACGTGTGGAT,0.08 kcal/mol
4,TTGAGCACGTGTGGAG,0.04 kcal/mol
5,ATCGTCACGTGGGGAT,-0.05 kcal/mol
6,GCTTGCACGTGTTGGT,0.13 kcal/mol
7,AAATACACGTGGTTTG,0.04 kcal/mol
8,CGGGTCACGTGTGACG,0.22 kcal/mol
9,GATTTCACGTGGTCTA,0.36 kcal/mol
10,TTCAACACGTGTAGGT,-0.01 kcal/mol
11,AGTCACACGTGGGATT,0.09 kcal/mol
12,AAAGGCACGTGGCGTT,-0.07 kcal/mol
13,TGGTCCACGTGGAGTT,0.04 kcal/mol
14,GGTAACACGTGGCAGT,0.02 kcal/mol
15,GATGACACGTGGTTAT,0.08 kcal/mol
16,TCGGTCACGTGTAAGG,0.13 kcal/mol
17,CTCGGCACGTGTTTGG,-0.04 kcal/mol
18,AATTGCACGTGTTTCG,0.01 kcal/mol
19,TTTTCCACGTGTTATT,0.11 kcal/mol
20,TTGGACACGTGTCTTG,0.1 kcal/mol
21,GTTTACACGTGCTGAG,0.03 kcal/mol
22,CATGGCACGTGGTGTC,-0.2 kcal/mol
23,TTGTGCACGTGCATAG,-0.02 kcal/mol

row,Sequence,relative binding free energy
1,TAGGGCACGTGTGAAT,-0.03 kcal/mol
2,TGACGCACGTGGGGTG,-0.43 kcal/mol
3,CTTGTCACGTGTGGGG,0.21 kcal/mol
4,GTTATCACGTGGAGTA,0.04 kcal/mol
5,GTGTACACGTGGAGCT,0.09 kcal/mol
6,TTAGGCACGTGCGCAT,-0.25 kcal/mol
7,GGAATCACGTGTGCGG,0.04 kcal/mol
8,TGCTGCACGTGATGAG,0.02 kcal/mol
9,GGCCTCACGTGGTGGG,-0.06 kcal/mol
10,TGAGCCACGTGAGTTT,0.19 kcal/mol
11,TTCTTCACGTGGATTG,0.18 kcal/mol
12,CGCGGCACGTGTAGGG,-0.01 kcal/mol
13,GTTTGCACGTGTCGTT,0.07 kcal/mol
14,TGATACACGTGATGGG,0.21 kcal/mol
15,TATGACACGTGTATGG,-0.04 kcal/mol
16,CGATACACGTGGGTTA,-0.03 kcal/mol
17,TAGTTCACGTGGCGTA,0.28 kcal/mol
18,TCCGACACGTGGGGGT,-0.16 kcal/mol
19,GGGATCACGTGATGCG,0.32 kcal/mol
20,ATTAACACGTGTTAGT,-0.17 kcal/mol
21,TGGAGCACGTGTCGCG,-0.03 kcal/mol
22,ATTACCACGTGGGGTG,-0.17 kcal/mol
23,CCGGTCACGTGGTGGG,-0.02 kcal/mol

row,Sequence,relative binding free energy
1,GTGGGCACGTGATGTA,-0.01 kcal/mol
2,AGTGGCACGTGCTGGC,-0.2 kcal/mol
3,TGGACCACGTGGTTGG,0 kcal/mol
4,TTTAACACGTGGTGAA,-0.05 kcal/mol
5,CGGGACACGTGTGGAG,0.06 kcal/mol
6,AGGTACACGTGACGTT,0.18 kcal/mol
7,TTGAACACGTGGGTAA,0.07 kcal/mol
8,TGTTTCACGTGGCCAG,0.24 kcal/mol
9,TTACTCACGTGTGGGT,0.29 kcal/mol
10,TGAAGCACGTGATGAT,-0.03 kcal/mol
11,GCGAGCACGTGTAAGG,-0.01 kcal/mol
12,GTTCTCACGTGGGGTG,0.22 kcal/mol
13,GTGAACACGTGTTTTG,0.01 kcal/mol
14,TAAGTCACGTGTATCG,0.16 kcal/mol
15,GCGTGCACGTGGGGGG,-0.16 kcal/mol
16,TGGCACACGTGAGTTG,0.2 kcal/mol
17,GGACGCACGTGGGAGT,-0.19 kcal/mol
18,GGTGTCACGTGACATT,0.13 kcal/mol
19,TTGTTCACGTGCATGG,0.29 kcal/mol
20,AAATTCACGTGCGGGT,0.26 kcal/mol
21,CTTGTCACGTGTTCTT,0.05 kcal/mol
22,ATAGGCACGTGATTGG,-0.09 kcal/mol
23,GTTAGCACGTGGGAAA,-0.07 kcal/mol

row,Sequence,relative binding free energy
1,GTTGTCACGTGAACGG,0.22 kcal/mol
2,TGGTTCACGTGTGTTC,0.31 kcal/mol
3,CGAGGCACGTGGGAGC,-0.13 kcal/mol
4,TGGTGCACGTGTAGTG,0.01 kcal/mol
5,TATGACACGTGCTATT,0.01 kcal/mol
6,TTGGGCACGTGGCGGC,-0.2 kcal/mol
7,TTGTGCACGTGGCACG,-0.27 kcal/mol
8,CGAGTCACGTGGTGGA,0.04 kcal/mol
9,AGGAGCACGTGGTGGT,-0.1 kcal/mol
10,ATCTTCACGTGTGTGC,0.13 kcal/mol
11,TTTTGCACGTGGTAAG,-0.05 kcal/mol
12,GATATCACGTGGGAGT,-0.03 kcal/mol
13,GTAAGCACGTGCTAGT,-0.09 kcal/mol
14,AGCGGCACGTGTTGTA,-0.17 kcal/mol
15,ACTTTCACGTGTTTAG,0.22 kcal/mol
16,TAGGCCACGTGTGTGA,-0.18 kcal/mol
17,AGTTACACGTGTGTAC,0.2 kcal/mol
18,ATGGGCACGTGATGAG,-0.07 kcal/mol
19,AGTGGCACGTGCGTGA,-0.31 kcal/mol
20,TTATCCACGTGGTAAT,0.15 kcal/mol
21,CTTGGCACGTGTTAGG,-0.06 kcal/mol
22,AGGTACACGTGTATTT,0.05 kcal/mol
23,TATTACACGTGATTTT,0.23 kcal/mol
